The source of these data is the supplement of paper PMC8183993.

“And” between values parts separate entries of the source, which are not always exact repeats. Equal entries are not always repeated. Structures can show the parent of a compound that is named as a salt. ± gives the standard deviation of the averaged measurements. In all, about 3,200 compounds were measured (“nuclei count (viability) relative to DMSO”: median about 99, lowest 2% from about 16 on). Some of the results follow.

The test system of the assay is U2OS. In words: nuclei count (viability) relative to DMSO (% of DMSO); higher = more viable cells. The settings on record: 10 µM; 24 h. How it is done:
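Primary image-based screen in U2OS cells: compounds at 10 uM for 24 h, then a 1 h o-propargyl-puromycin (OPP) pulse, click labelling, and high-throughput microscopy. Mean cytoplasmic OPP intensity and nuclei count were normalised to DMSO wells within each plate (DMSO = 100) and averaged over triplicate plates.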
As for `O=C(O)c1cccnc1C(=O)O` [Quinolinic acid], the nuclei count is 102.

In turn, `CC(C(=O)O)c1ccc(C(=O)c2cccs2)cc1` (stereo not given) [Suprofen] yielded a nuclei count of 108.

In the case of `CN1CCN(c2nc(C3=C(c4c[nH]c5ccccc45)C(=O)NC3=O)c3ccccc3n2)CC1` [Sotrastaurin (AEB071)], the nuclei count turned out to be 95.2 ± 3.4.

As for `COc1cc2ncnc(Nc3ccc(F)c(Cl)c3)c2cc1OCCCN1CCOCC1` [Iressa], the nuclei count was 100.

On to `COc1cc2ncnc(Nc3ccc(F)c(Cl)c3)c2cc1OCCCN1CCOCC1` [Gefitinib (Iressa)], for which the nuclei count was found to be 89.9.

Turning to `COc1cc2ncnc(Nc3ccc(F)c(Cl)c3)c2cc1OCCCN1CCOCC1` [Gefitinib], the nuclei count was determined as 99.8.

In the case of `CCOc1ccc(NC(C)=O)cc1` [Phenacetin], the nuclei count came to 109.

On to `CN1CCC[C@@H]1CCO[C@](C)(c1ccccc1)c1ccc(Cl)cc1` [Clemastine fumarate], for which the nuclei count came to 92.9 ± 9.9.

`[O-][S+](c1ccccc1)c1ccc2nnnn2n1` (stereo not given) gave a nuclei count of 32.8.

Turning to `O=C(c1ccc(OCCCc2c[nH]cn2)cc1)C1CC1` [Ciproxifan], the nuclei count stood at 103.

Turning to `CN1CCN(c2c(F)cc3c(=O)c(C(=O)O)cn4c3c2SCC4)CC1` [Rufloxacin], the nuclei count came to 113.

The compound `CC(=O)N1CCN(C)CC1` [1-Acetyl-4-methylpiperazine hydrochloride] had a nuclei count of 97.8.

Regarding `COc1ccc(C2CC(c3ccccc3)=NN2c2ccc(S(N)(=O)=O)cc2)cc1` (stereo not given), the nuclei count was 97.

Regarding `CCCC(=O)[O-].[Na+]` [Sodium butyrate], the nuclei count was determined as 89.2.

In the case of `Cc1cc(Nc2cc(N3CCN(C)CC3)nc(/C=C/c3ccccc3)n2)n[nH]1`, the nuclei count is 31.8.

As to `COCCOc1ccc2c(c1)ncn2-c1ccc2cccc(N3CCC(N)CC3)c2n1`, the nuclei count was 42.8 ± 3.7.

`COC(=O)C1=C(C)NC(C)=C(C(=O)OCCN(C)Cc2ccccc2)C1c1cccc([N+](=O)[O-])c1` (stereo not given) [Nicardipine hydrochloride]: the nuclei count was 109.

For `OC[C@H]1O[C@@H](c2ccc(Cl)c(Cc3ccc(O[C@H]4CCOC4)cc3)c2)[C@H](O)[C@@H](O)[C@@H]1O`, the nuclei count worked out at 98.1.

On to `CC1(C)CNc2cc(NC(=O)c3cccnc3NCc3ccncc3)ccc21` [Motesanib Diphosphate], for which the nuclei count amounted to 101.

As to `CC1(C)CCC(C)(C)c2cc(C(=O)Nc3ccc(C(=O)O)cc3)ccc21`, the nuclei count is 106 and 105.

Compound `Oc1cc(O)c(Cl)cn1` [Gimeracil] came in with a nuclei count of 97.3.

Compound `COC(=O)C1=C(C)NC(C)=C(C(=O)OCC(C)C)C1c1ccccc1[N+](=O)[O-]` (stereo not given) [Nisoldipine] showed a nuclei count of 90.

In the case of `COC(=O)C1=C(C)NC(C)=C(C(=O)OCC(C)C)C1c1ccccc1[N+](=O)[O-]` (stereo not given) [Nisoldipine (Sular)], the nuclei count was 86.9.

Turning to `CCCCCCCCCCCC1=C(O)C(=O)C=C(O)C1=O` [Embelin], the nuclei count was found to be 97.9.

For `CN(C)CCOC(c1ccc(Cl)cc1)c1ccccn1` (stereo not given) [Carbinoxamine maleate salt], the nuclei count was determined as 104.

`CCCCCCCCCCCCCCCC(=O)C(F)(F)F` came in with a nuclei count of 97.2.

Compound `O=C1CCc2ccc(OCCCCN3CCN(c4cccc(Cl)c4Cl)CC3)cc2N1` [Aripiprazole] registered a nuclei count of 103.

`NC(=O)NC1NC(=O)NC1=O` (stereo not given) [Allantoin] yielded a nuclei count of 102.

As for `Nc1nc2c(ccc3ccccc32)s1`, the nuclei count is 86.3.

In turn, `CC(C)NCC(O)c1ccc(O)c(O)c1` (single isomer, unassigned; (-)) [(-)-Isoproterenol hydrochloride] returned a nuclei count of 106.

`O=C1C(O)=C([C@H]2CC[C@H](c3ccc(Cl)cc3)CC2)C(=O)c2ccccc21` [Atovaquone] registered a nuclei count of 112.

Compound `Cc1ccc(/C=C2\CNC/C(=C\c3ccc(C)cc3)C2=O)cc1` registered a nuclei count of 7.58.

Consider `Cc1ccccc1C(OCCN(C)C)c1ccccc1` (stereo not given) [Orphenadrine hydrochloride], for which the nuclei count turned out to be 100.

The compound `CCOC(=O)C1=C(C)NC(C)=C(C(=O)OCC)C1` [Diludin] displayed a nuclei count of 110.

Turning to `CNCc1cc(-c2ccccc2F)n(S(=O)(=O)c2cccnc2)c1`, the nuclei count came to 98.1.

Consider `CCc1cc(-c2n[nH]c(C)c2-c2ccc3c(c2)OCCO3)c(O)cc1O`, for which the nuclei count stood at 86.7 ± 6.5.

`CN1CCC(=C2c3ccccc3CCc3sccc32)CC1` [Pizotifen malate] returned a nuclei count of 103.

Consider `COc1ncc(-c2ccc3nccc(-c4ccnnc4)c3c2)cc1NS(=O)(=O)c1ccc(F)cc1F`, for which the nuclei count came to 58.6.

`CN1CCOC(c2ccccc2)c2ccccc2C1` (stereo not given) [Nefopam hydrochloride]: the nuclei count was found to be 104.

In turn, `CN(C)[C@@H]1C(O)=C(C(=O)NCNCCCC[C@H](N)C(=O)O)C(=O)[C@@]2(O)C(O)=C3C(=O)c4c(O)cccc4[C@@](C)(O)[C@H]3C[C@@H]12` [Lymecycline] gave a nuclei count of 102.

Take `COc1ccc(NC(=O)c2ccc(-c3ccc(-c4noc(C)n4)cc3C)cc2)cc1N1CCN(C)CC1`: the nuclei count is 81.6.

In the case of `CCCCCOC(=O)Nc1nc(=O)n([C@@H]2O[C@H](C)[C@@H](O)[C@H]2O)cc1F` [Capecitabine (Xeloda)], the nuclei count stood at 102.

Compound `CCN(CC)CCOc1ccc(C(=C(Cl)c2ccccc2)c2ccccc2)cc1` [Clomiphene citrate (Z,E)] yielded a nuclei count of 93.3.

In turn, `CC(O)(P(=O)(O)O)P(=O)(O)O` [Etidronate (Didronel)] showed a nuclei count of 115.

`CC(O)(P(=O)(O)O)P(=O)(O)O` [Etidronic acid, disodium salt] came in with a nuclei count of 86.6.

In turn, `Cc1ccc2c(=O)c3ccccc3n(CCCN)c2c1C` showed a nuclei count of 25.4.

For the compound `CCC1NC(=O)c2cc(S(N)(=O)=O)c(Cl)cc2N1` (stereo not given) [Quinethazone], the nuclei count is 97.3.

In turn, `COc1ccccc1N1CCN(CCCCNC(=O)c2ccc3ccccc3c2)CC1` yielded a nuclei count of 102.

The compound `c1cc2c3c(c1)c1c(n3CCNC2)CCCC1` [WAY 629 hydrochloride] registered a nuclei count of 94.2.

For `O=C1[C@H](CC[C@H](O)c2ccc(F)cc2)[C@@H](c2ccc(O)cc2)N1c1ccc(F)cc1` [Ezetimibe (Zetia)], the nuclei count was 105.

Compound `Cc1cnc(C(=O)NCCc2ccc(S(=O)(=O)NC(=O)NC3CCCCC3)cc2)cn1` [Glipizide] returned a nuclei count of 102 ± 1.4.

Turning to `CC(C)NC[C@H](O)COc1cccc2[nH]ccc12` [(S)-(-)-Pindolol], the nuclei count was 113.

In the case of `O=C(Cc1ccccc1)Nc1nc2ccc(Cl)cc2c2nc(-c3ccco3)nn12`, the nuclei count turned out to be 97.9.

`COc1cc(C(C)=O)ccc1O` [Apocynin (Acetovanillone)] showed a nuclei count of 95.3.

The compound `CCCn1c(=O)[nH]c2nc(-c3ccc(S(=O)(=O)O)cc3)[nH]c2c1=O` came in with a nuclei count of 113.
